From PubChem BioAssay AID1345083 (National Center for Advancing Translational Sciences (NCATS), 2018)
The whole screen tested about 94,000 compounds, of which about 6,200 (6.6%) were called active. Inconclusive results, whose numbers are uncertain, are shown with a selection of clear calls. Calls come from the whole dose curve; as a rule, active = well fitted inhibition curve with a large enough effect; inconclusive = small, poorly fitted or top-dose-only effect; inactive = flat fitted curve, though single readings scatter. Potencies of inconclusive entries are doubtful fits and often do not repeat.

assay: Cytotoxic Profiling in HEK 293 Cell Line of Diverse Libraries Using Quantitative High-Throughput Screening; conditions: HEK 293 viability, ATP luminescence (CellTiter-Glo), 48-72 h; activity change, negative = cytotoxicity: at 115 µM (top of the series) unless noted; series mostly up to 115 µM; note: nearly all actives have a fitted effect of over 60% in size
How it was run: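 Cells seeded first (HEK 293, 250 cells/well), then compound added by pintool. Incubation ran 48 or 72 hr at 37 degree Celsius. CellTiter-Glo was added and luminescence imaged after 10 min at room temperature.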
% is set by controls: 0 for no effect and ±100 for the full control effect; potency is the fitted concentration of half-maximal effect; tags give direction and shape of the fitted curve.

| Compound | Potency | activity change, negative = cytotoxicity | outcome |
| --- | --- | --- | --- |
| Cc1cc(C)c(C(=O)N2CCC(=O)N(CC3CC3)C(C(C)C)C2)cc1C (centres undefined) | inconclusive: 89.1 µM [inhibitor, single point] | – | – |
| N#Cc1ccccc1CN1CCCCCCNC(=O)[C@@H]2C[C@@H](C(=O)N3CCc4ccccc4C3)C[C@@H]21 | inconclusive: 50.1 µM [inhibitor, partial curve, poor fit] | – | – |
| CC(C)(C)N1CC(C(=O)NCCCc2ccccc2F)CC1=O (centres undefined) | inconclusive: 50.1 µM [inhibitor, partial curve, poor fit] | – | – |
| Cc1nsc(NC(=O)NCc2ccccc2OC(F)(F)F)n1 | inconclusive: 50.1 µM [inhibitor, partial curve, poor fit] | – | – |
| O=C(NCc1ccccn1)c1ccc2nc(-c3cccnc3Cl)oc2c1 | inconclusive: 50.1 µM [inhibitor, partial curve, poor fit] | – | – |
| Cc1ccc(NC(=O)N2CC(N(C)Cc3cccnc3)C2)cc1C | – | inactive: 4.12% | – |
| CC1CCC2(CC1)NC(=O)N(CC(=O)N1CCc3ccccc31)C2=O (centres undefined) | – | inactive: 12% | – |
| COc1ccc(CN2C[C@H](O)C[C@H]2c2nc(-c3ccc4c(c3)OCO4)no2)c(OC)c1OC | – | inactive: -15.4% | – |
| COc1cccc(C(=O)N2CCC3(CC2)CCN(Cc2cccs2)c2ccccc2O3)c1 | inconclusive: 44.7 µM [inhibitor, partial curve, poor fit] | – | – |
| N#Cc1cccc(C(=O)N2CCC(N3C(=O)[C@H]4CN(Cc5ccccc5)C[C@H]4C3=O)CC2)c1 | inconclusive: 79.4 µM [inhibitor, partial curve, poor fit] | – | – |
| O=C(NCCc1ccccc1F)c1ccc2nc(-c3cccnc3Cl)oc2c1 | active: 39.8 µM | – | – |
| COC[C@@H]1CCCN1Cc1cn(Cc2ccccc2)nc1-c1cc2ccccc2o1 | inconclusive: 50.1 µM [inhibitor, partial curve, poor fit] | – | – |
| OC1CN(Cc2ccccc2)CCN(Cc2cn[nH]c2-c2ccc(Cl)cc2)C1 (centres undefined) | inconclusive: 50.1 µM [inhibitor, partial curve, poor fit] | – | – |
| Cc1ccsc1C(=O)N1CCC2(CC1)NC(=O)N(c1ccc(F)cc1)N2 | inconclusive: 25.1 µM [inhibitor, partial curve] | – | – |
| CCCc1ccc([S+](=O)([O-])N2CCC3(CC2)[C@H](C(=O)OCC)[C@@H](O)C(=O)N3C)cc1 | – | inactive: -29.5% | – |
| COc1ccc(CN2CCn3c(nn(-c4cccc(Cl)c4)c3=O)C2)cc1 | inconclusive: 89.1 µM [inhibitor, single point] | – | – |
| COc1cccc(CC(=O)Nc2ccc3c(c2)CN(Cc2ccccc2)C(=O)C(C)O3)c1 (centres undefined) | inconclusive: 56.2 µM [inhibitor, partial curve, poor fit] | – | – |
| COCCn1c(=O)c2c(n1Cc1ccccc1)CN(Cc1ccc(C(C)C)cc1)CC2 | inconclusive: 70.8 µM [inhibitor, partial curve] | – | – |
| CCc1noc([C@@H]2CC(F)(F)CN2C(=O)C2CCOCC2)n1 | inconclusive: 39.8 µM [inhibitor, partial curve, poor fit] | – | – |
| Cc1ccc(CNC(=O)C2CCN(C(=O)c3nnn4c3COC(c3ccc(C)cc3)C4)CC2)cc1 (centres undefined) | – | inactive: 1.03% | – |
| Cc1ccsc1C(=O)N1CCC(c2n[nH]c(=O)n2Cc2ccc(F)cc2)CC1 | – | inactive: -8.43% | – |
| CCCCn1c(=O)c(C(=O)N2CCN(C(=O)c3ccccc3F)CC2)nc2cccnc21 | – | inactive: -6.61% | – |

| Compound | Potency | activity change, negative = cytotoxicity | outcome |
| --- | --- | --- | --- |
| COc1ccc(Cl)cc1-c1ccc2c(c1)C(=O)N1CCN(C(=O)CO)C[C@@H]1C(=O)N2 | inconclusive: 112 µM [inhibitor, partial curve, poor fit] | – | – |
| COc1cc(CN2C[C@@H](CO)[C@H](NC(=O)c3cccnc3)C2)ccc1F | – | inactive: -0.816% | – |
| CCOc1ccc(CC(=O)N2CCC[C@H]2c2nc(-c3ccc(OC)cc3)no2)cc1OCC | inconclusive: 89.1 µM [inhibitor, single point] | – | – |
| O=C(c1ccc2c(c1)OCO2)N1CCN2C(=O)NC[C@H]2C1 | – | inactive: -7.1% [at 230 µM] | – |
| O=c1c2nc(-c3cccc(O)c3)ccc2ncn1Cc1ccccn1 | – | inactive: -19.5% [at 172 µM] | – |
| O=C1NC2(CCCN(Cc3ccsc3)C2)COc2ccccc21 (centres undefined) | active: 79.4 µM | – | – |
| O=C(c1ccc(N2CC3CC(C2)[C@H]2CCCC(=O)N2C3)nc1)N1CCN(c2ccc(F)cc2)CC1 (some centres undefined) | inconclusive: 89.1 µM [inhibitor, single point] | – | – |
| CN1CCC2(C1)CN(CC1CC1)c1ccc(C(=O)NC3CC3)cc12 (centres undefined) | inconclusive: 63.1 µM [inhibitor, full curve, poor fit] | – | – |
| O[C@H]1[C@@H]2CN(Cc3ccccc3)C[C@@H]2[C@@H]2O[C@H]1C[C@@H]2c1ccc(F)cc1 | inconclusive: 89.1 µM [inhibitor, single point] | – | – |
| CN(C)C[C@@H]1CN(c2ccccn2)C[C@H]1NC(=O)c1cnco1 | – | inactive: 2.93% | – |
| COCCNC(=O)C1CCCN(Cc2cccc(-c3ccccc3OC)c2)C1 (centres undefined) | inconclusive: 56.2 µM [inhibitor, partial curve, poor fit] | – | – |
| O=C(C1CCCC1)N1CC2(CCCN(Cc3ccccn3)C2)Cc2ccccc21 (centres undefined) | inconclusive: 50.1 µM [inhibitor, partial curve, poor fit] | – | – |
| Cc1ccc(C(=O)N[C@H]2CO[C@H]3[C@@H]2OC[C@@H]3n2nnnc2Oc2ccccc2)cc1 | inconclusive: 20 µM [inhibitor, full curve] | – | – |
| O=C(Cc1ccc(F)cc1)NCc1nnc2c(-c3nc(C4CC4)no3)cccn12 | – | inactive: 1.14% | – |
| CC(=O)N1CCC(NC[C@@H]2C=C(C)[C@H](Cc3nc4ccc(F)cc4[nH]3)C[C@H]2C(C)C)CC1 | inconclusive: 56.2 µM [inhibitor, partial curve, poor fit] | – | – |
| Cc1cccnc1N1CCN(Cc2ccc(-n3cncn3)cc2)CC1 | inconclusive: 56.2 µM [inhibitor, partial curve, poor fit] | – | – |
| CCOCCOC1CCN(C(=O)c2cc(-c3cccc(OC)c3)n[nH]2)CC1 | – | inactive: -22.5% | – |
| CS(=O)(=O)c1ccc(CC(=O)N[C@H](c2ccccn2)C2CC(O)C2)cc1 (some centres undefined) | – | inactive: -3.01% | – |
| Cc1ccc(-c2ccc(CN3CCCC(NC(=O)Cc4ccc(F)cc4)C3)cc2)cc1Cl (centres undefined) | inconclusive: 15.8 µM [inhibitor, full curve, poor fit] | – | – |
| Cc1ccc(C(=O)N2CCC(N3CC4(CCCC4)C3c3ccccc3)CC2)s1 (centres undefined) | inconclusive: 39.8 µM [inhibitor, partial curve, poor fit] | – | – |
| CCOc1cccc(CNC(=O)C2CCN(C(=O)c3ncn4c3COC(c3ccccc3)C4)CC2)c1 (centres undefined) | – | inactive: 12.6% | – |
| CN1CCC(OC2CCN(S(=O)(=O)c3ccc(F)cc3)CC2)CC1 | – | inactive: -18.2% | – |

| Compound | Potency | activity change, negative = cytotoxicity | outcome |
| --- | --- | --- | --- |
| O=[S+]([O-])(c1ccccc1)N1CC2(COCCN(Cc3ccsc3)C2)C1 | inconclusive: 100 µM [inhibitor, partial curve, poor fit] | – | – |
| CCn1cc(Cl)c(C(=O)N2CCCn3cc(-c4ccccc4)nc32)n1 | inconclusive: 44.7 µM [inhibitor, partial curve] | – | – |
| O=C1[C@@H]2C[C@@H](CN2C2CCCC2)Oc2ccccc2N1Cc1ccccc1 | active: 100 µM | – | – |
| O=C(NCCc1ccc(Cl)cc1)C1CCN(c2nccc(Nc3ccccc3Cl)n2)CC1 | inconclusive: 31.6 µM [inhibitor, partial curve, poor fit] | – | – |
| CCOc1ccccc1-c1noc(-c2nc(CC)no2)n1 | inconclusive: 50.1 µM [inhibitor, partial curve, poor fit] | – | – |
| COCCN1CCOc2nc(-c3cc4ccccc4o3)ncc2C1=O | inconclusive: 112 µM [inhibitor, partial curve, poor fit] | – | – |
| CC(C)CCN1CCC12Cc1ccccc1NC2=O (centres undefined) | inconclusive: 70.8 µM [inhibitor, partial curve, poor fit] | – | – |
| COc1ccccc1N1CCCc2ncc(C(=O)N(C)Cc3ccccc3)cc21 | active: 100 µM | – | – |
| COc1ccccc1C(=O)N1CCCC2(CN[S+](=O)([O-])c3cccnc3N2)C1 (centres undefined) | – | – | inactive |
| O=C(Cc1cccc(F)c1)N1CCC(Cc2nc(C3CCOCC3)no2)CC1 | inconclusive: 89.1 µM [inhibitor, single point] | – | – |
| CC(C)CCN1CCC(O)(c2csc(CN3CCc4ccccc4C3)n2)CC1 | active: 79.4 µM | – | – |
| COCCNC(=O)C[C@@H]1c2nc(-c3ccccc3)sc2C[C@@H]2[C@](C)(CO)[C@H](O)CC[C@]21C | inconclusive: 89.1 µM [inhibitor, single point] | – | – |
| CC[C@H]1CN(C(=O)NC(C)C)CC[C@H]1CC(=O)N(C)CCC#N | – | inactive: -1.18% [at 172 µM] | – |
| CN1CCC(N(Cc2ccccc2)[C@@H]2C[C@@H]3CO[C@H](c4ccccc4)C[C@@H]3C2)CC1 | inconclusive: 20 µM [inhibitor, full curve, poor fit] | – | – |
| Cc1nnn2c(C(=O)NCc3ccc(Cl)cc3)cccc12 | active: 79.4 µM | – | – |
| COc1ccc(-c2cc(C(=O)N(C)c3ccccc3)c3cnn(C)c3n2)cc1 | inconclusive: 56.2 µM [inhibitor, partial curve, poor fit] | – | – |
| O=C(c1ccccc1)N1CC2(CCCN2Cc2cccnc2)Cc2ccccc21 (centres undefined) | inconclusive: 56.2 µM [inhibitor, partial curve, poor fit] | – | – |
| COc1cc(OC)cc(C(=O)N2CCC3(CC2)N=C(c2ccc(C)cc2)NO3)c1 | inconclusive: 63.1 µM [inhibitor, partial curve, poor fit] | – | – |
| O=C(c1ccccc1)N1CCN(Cc2ccc(=O)n(CC3CC3)c2)CC1 | – | inactive: -10.3% | – |
| Cc1ccc(C(=O)N2CC(Oc3ccc4c(c3)OCO4)C2)cc1 | inconclusive: 8.91 µM [inhibitor, full curve, poor fit] | – | – |
